# Measured values from the RNAGym collection of RNA variant scans (doi:10.7554/elife.90254).
# Read counts are not given, so values of variants with three or more changes are uncertain.
# B1: LINE1-mini (parent)
# chain: GGCAGAGCUCAACACAGCGUGGCAAAGUGGCUGUGGCUAGACUGCC
# Variants of: B1
# Assay: self-cleavage, relative activity (ratio to wild type); higher = more cleavage; in vitro, sequencing; the parent is a self-cleaving ribozyme
row,Variant,self-cleavage
1,U20A G22C A25G A41U,0.08
2,G22C U28A G29C C37G C46A,0.01
3,A6C A16C C23A,0.15
4,G5U G7U G19A G40A,0.46
5,G1C U28C U34G,0.08
6,G5A C18A G35A G44C,0.01
7,A6G A14C G17A C42G C46G,0.01
8,A4U A41U C42A C45G,0.01
9,G5C G7A G21A U43C,1.39
10,A25U U28C C37A,0.03
11,C13G A14U A16C G19U C23G G33U,0.03
12,G2U A11C G21A C23U G30U,0.03
13,G7U A11C G17U C18G U20A A26G G29U,0.01
14,C3A A11U C18U G30C U43C,0.04
15,C13U C18A G21U,0.09
16,G7A C10G A12C U20C A24G A25U A39G C46A,0
17,C18A C37U A41U,0.06
18,A12U G19U A24C G27C U32C C37A,0.02
19,G17A U20C G30A C31A G35C,0.01
20,G7C C15U A26U U28A,0.01
21,G21C G27A U38G A39U,0.05

row,Variant,self-cleavage
1,G27U U28G A41G,0.11
2,U9A C15U G22U A26U C46A,0.1
3,G21C U28A G33U C46A,1.72
4,G2U U28G C31G C37U C45G,0.01
5,C10A G30U C45G,0.08
6,C3G A12U A26G U38C,0.03
7,G2A G7A C13A A16C U43C,0.33
8,G19C G35U C37G,0.02
9,C13U A39G U43A,0.14
10,A6G C37U G44U,0.11
11,G19A G22C A24G,0.3
12,A4U C13U U20G C37U,0.06
13,G5U G27A C42U U43G,0.4
14,A4U A14G C15G U28G C42A,0.01
15,G17U C23U C46G,0.05
16,G5A A26G G27U,0.18
17,A14G C18G A39C,0.04
18,U9A C10A G21C,0.05
19,G5C A16G U43G,0.08
20,A12C A16U U20C G33A,0.01
21,A4U C18G C23U G44U,0.02

row,Variant,self-cleavage
1,A12G G19U A26G,0.09
2,G5A G27A G29A U34C,0.04
3,G2A A4C U38A,0.53
4,C13U G21U G22U,0.59
5,A4C G7U C15G C31A C45A,0.04
6,C18U A25U G33A C37U A39U,0.16
7,A11C G19C C46A,0.01
8,A4C G5C C8G G21U,0.22
9,C10U C13G A14G A41C,0
10,G7A G22U G29A,0.09
11,G1C G17U U20G A26C U32G C42A,0.08
12,G21A G22C G27C G36U G44C,2.63
13,A6G C8A C18A,0.29
14,G7C A11U C37U C42U C46A,0.02
15,G1U G30A A41C,0.02
16,U28G G29A C37U G40A C45U,0.04
17,C18U G19A C42G,0.04
18,G2C U20G C45U,0.26
19,G2A G19A A25C U32C C42G,0.12
20,C10U C15G C18A C31G,0.02
21,C18A U20G A41C U43C G44U,0.05

row,Variant,self-cleavage
1,C8U U20A G35C G36U,0.23
2,A4C A16G G22U,0.02
3,C10U A12U C13U C15A A16U G30U,0.07
4,G17A G22U U43A G44C,0.13
5,A14U U20C C31A G33U A41G C45U,0.03
6,C18A G29A A41U,0.08
7,G7C C18G A39G,0.08
8,G17C C18A G19U U34G,0.05
9,G5U G17U A25G C37A G44C,0
10,A14U C15G A26G A39C A41C,0.07
11,G2A C10G A14U,0.02
12,A4G C15A U28C U32C,0.06
13,C13U A14G G29C,0.12
14,A16G G36C U43C,0.05
15,C10G C15U G30C,0.01
16,C10A C15U U43C,0.02
17,A6C A16U A25U,0.05
18,C23U A26C G40C G44C,0.08
19,G5U C13U A16G C37A,0.01
20,G2U A14G G27A U28C G29U,0.03
21,A4U A14U U38G,0.08
